According to PubChem BioAssay AID485341 (National Center for Advancing Translational Sciences (NCATS), 2010):
In all, about 330,000 compounds went through this assay and about 1,700 (0.52%) were called active. The shares of active, inactive and inconclusive entries below differ from those in the screen. Calls come from the whole dose curve; as a rule, active = well fitted inhibition curve with a large enough effect; inconclusive = small, poorly fitted or top-dose-only effect; inactive = no such curve, though single readings can be large or run the other way. A potency beside an inconclusive call is a rough fit, not a confirmed value.

The molecules below were run against Beta-lactamase (Escherichia coli (strain K12)) (UniProt P00811) (assay: qHTS Inhibitors of AmpC Beta-Lactamase (assay without detergent)). Conditions: AmpC nitrocefin hydrolysis, absorbance 480 nm, 0.0001% Triton; series mostly up to 57.1 µM.
UniProt P00811, sequence (P00811 whole entry, looked up): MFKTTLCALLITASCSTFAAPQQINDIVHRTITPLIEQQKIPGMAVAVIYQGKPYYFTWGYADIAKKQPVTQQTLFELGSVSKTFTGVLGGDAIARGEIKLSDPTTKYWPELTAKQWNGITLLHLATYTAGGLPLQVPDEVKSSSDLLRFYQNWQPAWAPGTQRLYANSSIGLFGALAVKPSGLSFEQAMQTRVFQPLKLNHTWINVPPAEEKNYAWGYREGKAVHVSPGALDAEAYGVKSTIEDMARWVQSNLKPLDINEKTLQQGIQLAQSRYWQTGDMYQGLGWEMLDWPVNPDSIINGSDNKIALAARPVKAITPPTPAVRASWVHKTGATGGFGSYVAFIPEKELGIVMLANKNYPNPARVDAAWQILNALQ
Method in brief: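 20 mM phosphate pH 7.0 + 0.01% (detergent screen) or 0.0001% Triton X-100; 5.3 nM AmpC reagent; cpd preinc 15 min RT; nitrocefin (800 uM stock) to start; A480 q20 s × 4 min; Activity was normalised to no-enzyme and no-compound control wells.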
Note: nearly all actives have a fitted effect of over 20% in size.
Potency is the fitted concentration of half-maximal effect; tags give direction and shape of the fitted curve.

For `Oc1c(-c2cc(-c3ccco3)[nH]n2)ccc2ccccc12`, which Potency is on record?
Its Potency is inconclusive: 28.2 µM [inhibitor, single point].

For `Cc1cccn2c(=O)c3cc(C(=O)NC4CCS(=O)(=O)C4)sc3nc12` (stereo not given), which Potency is on record?
The Potency was “inactive”.

Which Potency does the source give for `CCOC(=O)c1nn(-c2ccc(Cl)cc2)c(C)cc1=O` here?
Its Potency is “inactive”.

With `CCOC(=O)c1ccc(NC(=O)c2cn(-c3ccccc3)nc2-c2ccncc2)cc1` as the molecule, how does the Potency read?
Its Potency is inconclusive: 0.631 µM [inhibitor, partial curve, poor fit].

With `CCSc1nc(-c2ccccc2)c(C#N)c(=O)[nH]1` as the molecule, how does the Potency read?
The Potency was active: 2.24 µM.

`CC(=O)Oc1cccc(NC(=O)c2ccc3c(c2)C(=O)N(CC(C)C)C3=O)c1` was tested. Which Potency did it give?
The Potency was “inactive”.

With `O=C(Nc1cccc(Oc2ccc3c(c2)C(=O)NC3=O)c1)c1ccco1` as the molecule, how does the Potency read?
The Potency was inconclusive: 0.141 µM [inhibitor, full curve, poor fit].

Which Potency does the source give for `COCCNC(=O)CN(C(=O)Cn1nnc2ccccc21)c1cc(C)cc(C)c1` here?
The Potency was “inactive”.

`COc1ccc(C(=O)Nc2cc(OC)ccc2OC)cc1` was tested. Which Potency did it give?
The Potency was “inactive”.

With `O=C(N/N=C/C=C/c1ccccc1)c1cccc(Br)c1` as the molecule, how does the Potency read?
The Potency was inconclusive: 22.4 µM [inhibitor, single point].

For `COC(=O)c1ccc(/C=C/c2c(-c3ccsc3)oc3ccc(N4CCOCC4)cc23)cc1`, which Potency is on record?
Its Potency is “inactive”.

`C=CCc1cc(Cl)ccc1OCCOCCN(C)C` was tested. Which Potency did it give?
The Potency was “inactive”.

With `O=C(Nc1nc2cc3c(cc2s1)OCO3)C1CCCCC1` as the molecule, how does the Potency read?
The Potency was inconclusive: 3.55 µM [inhibitor, full curve].

Which Potency does the source give for `Cc1ccc(NC(=O)c2ccc(Nc3ccccc3F)nc2)cc1` here?
Its Potency is “inactive”.

With `O=C(NC1CC(=O)N(c2ccc(Cl)cc2)C1)C1CC1` (stereo not given) as the molecule, how does the Potency read?
The Potency was inconclusive: 35.5 µM [inhibitor, single point].

How did the Potency turn out when `Cc1cccc(N2CCN(C(=S)c3ccccc3)CC2)c1` was run?
The Potency was inconclusive: 31.6 µM [inhibitor, partial curve].

With `O=C(N/N=C/c1ccc(F)c(F)c1)c1cc2c(s1)-c1ccccc1CC2` as the molecule, how does the Potency read?
The Potency was inconclusive: 3.55 µM [inhibitor, single point].

Which Potency does the source give for `O=C(N/N=C/c1ccc[nH]1)c1cc2ccccc2cc1O` here?
Its Potency is active: 14.1 µM.

`O=C(Nc1ccc(-c2csc(Nc3cccc(C(F)(F)F)c3)n2)cc1)c1ccccc1` was tested. Which Potency did it give?
Its Potency is “inactive”.

With `COCCCNC(=O)CN1C(=O)CSc2ncccc21` as the molecule, how does the Potency read?
The Potency was inconclusive: 0.501 µM [inhibitor, full curve, poor fit].

How did the Potency turn out when `COc1cccc(Cn2nnc(C(=O)NCc3ccc4c(c3)OCO4)c2N)c1` was run?
The Potency was active: 35.5 µM.

For `O=C(Nc1ccc(S(=O)(=O)N2CCCC2)cc1)c1cccc(OC(F)F)c1`, which Potency is on record?
The Potency was active: 31.6 µM.

With `O=C(O)COc1ccccc1-c1nc(-c2ccccc2)c(-c2ccccc2)[nH]1` as the molecule, how does the Potency read?
The Potency was active: 3.16 µM.

`CCSc1nnc(-c2ccncc2)o1` was tested. Which Potency did it give?
Its Potency is “inactive”.

For `COC(=O)c1ccccc1CSc1nsc(/C=C/N(C)C)c1C#N`, which Potency is on record?
Its Potency is active: 28.2 µM.

For `Cc1ccc(C)c(S(=O)(=O)N2CCCC2CNC(=O)C(=O)NCC2CCCO2)c1` (stereo not given), which Potency is on record?
Its Potency is inconclusive: 39.8 µM [inhibitor, single point].

How did the Potency turn out when `Cc1c(C)n2c(SCC(=O)N3CCCCC3)nnc2[nH]c1=O` was run?
The Potency was inconclusive: 31.6 µM [inhibitor, single point].

Which Potency does the source give for `CCN1CCN(C(c2cccs2)C(C)NC(=O)NC2CCCCC2)CC1` (stereo not given) here?
Its Potency is active: 44.7 µM.

With `CC1(C)CC2CC(C)(CN2S(=O)(=O)c2cccc(C(=O)OCC(N)=O)c2)C1` (stereo not given) as the molecule, how does the Potency read?
Its Potency is inconclusive: 31.6 µM [inhibitor, single point].

With `O=C(N/N=C/c1ccccc1)c1ccc(N2CCOCC2)c([N+](=O)[O-])c1` as the molecule, how does the Potency read?
Its Potency is inconclusive: 39.8 µM [inhibitor, single point].

With `CCOc1ccc(C2CC(c3ccc(OC)cc3)n3ncnc3N2)cc1` (stereo not given) as the molecule, how does the Potency read?
Its Potency is inconclusive: 0.316 µM [inhibitor, full curve, poor fit].

For `CN1Cc2c(N3CCOCC3)nc3sc(C#N)c(N)c3c2CC1(C)C`, which Potency is on record?
The Potency was “inactive”.

Which Potency does the source give for `C/C(=N/Nc1ccnc2cc(Cl)ccc12)c1ccc(O)cc1` here?
Its Potency is “inactive”.

For `CCc1ccc(NC(=O)CSc2nnnn2C)cc1`, which Potency is on record?
Its Potency is “inactive”.

How did the Potency turn out when `Cc1cccc(C2CC(c3ccc(Cl)cc3)Nc3nc(N)nn32)c1` (stereo not given) was run?
The Potency was active: 3.55 µM.

Which Potency does the source give for `CCN(CC(=O)Nc1c(F)cccc1F)C(=O)Cc1n[nH]c(=O)c2ccccc12` here?
The Potency was inconclusive: 39.8 µM [inhibitor, single point].

For `CCOC(=O)N1CCN(C(=O)CSCC(=O)Nc2nc(-c3ccc(-c4ccccc4)cc3)cs2)CC1`, which Potency is on record?
The Potency was inconclusive: 7.94 µM [inhibitor, full curve, poor fit].

Which Potency does the source give for `O=C(CSCc1ccccc1Cl)NN=C1CCCCCC1` here?
The Potency was active: 0.224 µM.

With `Cc1ccc2nc(SCC(=O)NC3CCCC3)nc(=O)n2c1` as the molecule, how does the Potency read?
The Potency was inconclusive: 39.8 µM [inhibitor, single point].

Which Potency does the source give for `COC(=O)C1=C(C)NC(C)=C(C(=O)OC)C1c1ccc(OC(=O)c2ccco2)cc1` here?
The Potency was “inactive”.

For `O=C(Nc1ccccc1)c1nnsc1S(=O)(=O)c1ccc(Cl)cc1`, which Potency is on record?
Its Potency is inconclusive: 17.8 µM [inhibitor, partial curve].

For `COc1ccc(OCC(O)CN(CC(O)COc2ccc(OC)cc2)c2cccc(O)c2)cc1` (stereo not given), which Potency is on record?
The Potency was “inactive”.

How did the Potency turn out when `O=C(Cn1nnc(-c2ccncc2)n1)Nc1ccc2c(c1)CCC2` was run?
The Potency was inconclusive: 3.98 µM [inhibitor, single point].

How did the Potency turn out when `O=C(NCC(c1ccco1)N1CCN(c2ccc(F)cc2)CC1)c1ccco1` (stereo not given) was run?
Its Potency is inconclusive: 31.6 µM [inhibitor, single point].

With `CCN(CC)c1ccc(NC(=O)c2cccc(C)c2)cc1S(=O)(=O)Nc1ccccc1OC` as the molecule, how does the Potency read?
Its Potency is inconclusive: 4.47 µM [inhibitor, full curve, poor fit].

Which Potency does the source give for `O=c1c2ccccc2nc(COc2ccccc2)n1/N=C/c1ccc(O)c(O)c1` here?
The Potency was active: 3.55 µM.

For `CCN(CC)C(=O)CSc1nnc(-c2ccco2)o1`, which Potency is on record?
The Potency was “inactive”.

How did the Potency turn out when `Cc1ccccc1-c1nsc(SCC(=O)Nc2ccc3c(c2)OCO3)n1` was run?
The Potency was “inactive”.

How did the Potency turn out when `CCC(C)(C)NC(=O)CN(C(=O)C(=O)Nc1ccc2c(c1)OCCO2)C1CC1` was run?
Its Potency is “inactive”.

Which Potency does the source give for `CS(=O)(=O)C1=NSC2=NC(=O)/C(=C\c3cccn3-c3ccc(Cl)cc3)C(=N)N21` here?
Its Potency is inconclusive: 11.2 µM [inhibitor, partial curve, poor fit].
